# Measurements taken from PubChem BioAssay AID662 (National Center for Advancing Translational Sciences (NCATS), 2007).
# Among all 71,000 compounds or so, about 1,800 (2.5%) were called active. Inconclusive results, whose numbers are uncertain, are shown with a selection of clear calls. Calls come from the whole dose curve; as a rule, active = well fitted activation curve with a large enough effect in the signal ratio, with a control signal flat (not every such curve was filed as active); inconclusive = small, poorly fitted or top-dose-only effect, or effect the other way, or a change in a side signal; inactive = flat fitted curve, though single readings scatter; the % refers to the signal ratio. Where the call is inconclusive, the potency comes from a doubtful curve fit.
# Assay: Cell signaling CRE-BLA (Fsk stim); for activity change, negative = inhibition: % of control where 0% means no effect
# Conditions: CHO CRE-bla reporter (cAMP response element driving beta-lactamase), forskolin EC10, beta-lactamase ratio; activity change, negative = inhibition: at 38.2 µM (top of the series) unless noted
# Source text: NIH Molecular Libraries Screening Centers Network [MLSCN]
# NIH Chemical Genomics Center [NCGC]
# Assay Provider: Marshall W. Nirenberg, U.S. National heart lung & blood institute
# Memories persist for different lengths of time, from seconds or minutes to a lifetime. There are two kinds of memory: short-term memory (STM) and long-term memory (LTM). STM lasts for minutes to hours, which maybe mediated by modifications of molecules involved in synaptic functions. LTM lasts for days or longer, and may be due to the formation of new synapses or restructuring of existing synapses. LTM, but not STM, requires gene transcription and synthesis of proteins. CREB (cyclic-AMP Responsive Element Binding Protein) is one of the candidates plays an important role for enhancement of some types of LTM. CREB, a family of transcription factors, regulates the transcription of genes containing cAMP Responsive Elements (CRE). CRE is a nucleotide sequence often found in the promoter regions of genes that are binding sites for CREB.
# Using a beta-lactamase reporter-gene under control of cAMP responsive element, a cell-based assay [CellSensor(TM) CRE-bla CHO developed by Invitrogen Corp.] was used to measure forskolin-induced signaling. Library compounds were measured for their ability to modulate positively or negatively the action of EC10 NKH 477, a water soluble forskolin, on reporter gene activity. Compounds were screened in a titration series in 1536-well format. Positive and negative modulators were identified based on the AC50 values derived from the screening data.
# NCGC Assay Protocol Summary
# 2000 cells/5uL in Opti-MEM medium containing 0.5% dialyzed FBS, 0.1 mM NEAA, 1 mM sodium pyruvate and 10 mM HEPES was dispensed into 1536-well plates and cells were cultured at 37 degrees Celsius overnight. […] And then the plates were incubated at 37 degrees Celsius for 3 hours. 1 uL of CCF4-dye mixture was added to each well. After incubated at room temperature for 2 hours the plates were measured on an EnVision plate reader at Excitation 405nm, Emission1=460nm and Emission 2=530nm. The %Activity was determined from the ratio of 460nm/530nm.
# Keywords: NIH Roadmap, MLSCN, MLSMR, qHTS, NCGC, CRE, beta-lactamase reporter-gene assay.
# Potency is the fitted concentration of half-maximal effect; tags give direction and shape of the fitted curve.
SMILES,Potency,"activity change, negative = inhibition"
COC(=O)COc1cc(C)cc2oc(=O)c3c(c12)CCCC3,"inconclusive: 12.6 µM [rising, partial curve]",–
CN(C)c1ccc(N=Nc2ccccc2)cc1,–,inconclusive: -22.3%
CC1(C)[C@@H]2CC[C@]1(C)CN(CCC[N+](C)(C)C)C2,–,inactive: 12.9% [at 7.6 µM]
C[C@@H](Cc1ccccc1)NCCC(c1ccccc1)c1ccccc1,"inconclusive: 3.16 µM [falling, full curve]",–
C[C@H]1CCCC=CC2C[C@H](O)C[C@@H]2[C@H](O)/C=C\C(=O)O1 (stereo partly specified),"inconclusive: 0.398 µM [falling, full curve]",–
CCn1cc(C(=O)O)c(=O)c2ccc(C)nc21,–,inactive
CC(C)CC(C)Nc1ccc(Nc2ccccc2)cc1 (stereo unspecified),–,inconclusive: -6.22%
COc1ccc(N2C(=O)CC(N3CC=C(c4ccccc4)CC3)C2=O)cc1 (stereo unspecified),–,inconclusive: -24.5%
CO[C@@H](C)[C@](O)(C(=O)OC1=CCN2CC[C@H](O)[C@H]12)C(C)C,–,inactive: 11.7%
N#CC1=C(N)Oc2c(c(=O)oc3ccccc23)C1c1cccnc1 (stereo unspecified),–,inconclusive: -3.08%
CN1C[C@H](CO)C=C2c3cccc4[nH]cc(c34)C[C@H]21,–,inactive: -10.8%
CCOc1ccc(-c2cc(C(=O)N3CCC4(CC3)OCCO4)c3ccccc3n2)cc1,–,inactive: -0.999%
CCOC(=O)CC(SP(=O)(OC)OC)C(=O)OCC (stereo unspecified),–,inconclusive: -22.1%
Oc1ccc2c3c1O[C@H]1c4c(c5ccccc5n4Cc4ccccc4)C[C@]4(O)[C@H](C2)N(CC2CC2)CC[C@@]314,"inconclusive: 3.98 µM [falling, full curve]",–
C[C@H]1CCC[C@H](O)CCCCCc2cc(O)cc(O)c2C(=O)O1,–,inconclusive: 24%
COC(=O)c1cc(COc2cc(C)cc3oc(=O)c4c(c23)CCC4)c(C)o1,–,inconclusive: 18.3%
CC(=O)C1C2c3ccccc3OC1(C)N=c1s/c(=C/c3cn(C)nc3C)c(=O)n12 (stereo unspecified),–,inconclusive: 15%
Cn1ncnc2c(=O)n(C)c(=O)nc1-2,–,inconclusive: -10.8% [cytotoxic]
CC(=O)[O-].CC(=O)[O-].O.O.[Cd+2],"inconclusive: 2.51 µM [rising, partial curve]",–
CCCCCCn1c(N)c(C(=O)NCCN2CCOCC2)c2nc3ccccc3nc21,"inconclusive: 10 µM [rising, partial curve]",–
CCCSC(=O)Cl,–,inactive: 1.9%

SMILES,Potency,"activity change, negative = inhibition"
Nc1ccc(S(=O)(=O)c2ccc(NCN3C(=O)NC(=O)C(=O)C3=O)cc2)cc1,–,inactive: -12.2% [at 7.6 µM]
CCNC(C)(C)[C@@H](SS)c1ccc(Br)cc1,–,inactive: -3.77% [at 7.6 µM]
C[C@@]12CC[C@H](O)C[C@@H]1CC[C@H]1[C@H]2C[C@@H](O)[C@]2(C)[C@@H](C3=CC(=O)OC3)CC[C@@]12O,–,inactive: -5.25%
Cc1[nH]c2ccccc2c1C1=CCNCC1,"inconclusive: 20 µM [falling, single point]",–
CC1=C2[C@@H]3OC(=O)[C@@H](C)[C@@H]3CC[C@]2(C)C=CC1=O,–,inactive: -13.6% [at 17.1 µM]
C=CCCN1C[C@@H]2C[C@H](C1)c1cccc(=O)n1C2,–,inconclusive: -16.7%
O=C(COc1ccccc1)N1CCN(C/C=C/c2ccccc2)CC1,–,inactive: -6.35%
CCC(=NCC1CCCO1)c1c(O)[nH]c(=O)[nH]c1=O (stereo unspecified),–,inconclusive: 26.1%
O=C(O)c1cc(N=Nc2ccc([As](=O)(O)O)cc2)ccc1O,–,inactive: 9.75% [at 7.6 µM]
CCOC(=O)c1c(-c2ccccc2)oc2ccc(OC(=O)N(C)C)cc12,"inconclusive: 12.6 µM [rising, partial curve]",–
Cc1cccc(N)c1C,–,inactive: -20.4%
COc1ccccc1CN1CCN(C(=O)Cc2ccccc2)CC1,–,inconclusive: 18.2% [at 7.6 µM]
O=[As](O)(O)c1ccc(Cc2ccc([As](=O)(O)O)cc2)cc1,"inconclusive: 5.01 µM [rising, single point]",–
c1ccc2c(CN3CCN(C4CCCCC4)CC3)c[nH]c2c1,–,inconclusive: 3.75%
O=C(O)[C@@H](Br)[C@H](Br)C(=O)O,–,inactive: 0.838% [at 7.6 µM]
CCOP(=O)(C#CC(C)(C)C)C(O)(c1ccccc1)C(F)(F)F (stereo unspecified),–,inconclusive: 1.77%
CC(C)(O)[C@@H]1[C@H]2OC(=O)[C@@H]1[C@]1(O)C[C@H]3O[C@]34C(=O)O[C@H]2[C@@]14C (tested in a mixture with another compound),–,inconclusive: -2.83%
CCCN1CCc2cccc3c2[C@@H]1Cc1ccc(O)c(O)c1-3,–,inactive: -2.07%
CCCCP(=O)(O)CCC(=O)O,–,inconclusive: -5.81%
COc1ccc(C=O)cc1,–,inactive: 8.73%
